Where “and” joins values, the source holds several entries; their conditions need not be identical. Identical values can stand only once. This list was built around the results that the source calls inconclusive (neither active nor inactive); the mix of calls is not that of the screen. For some of these results: Potencies beside an inconclusive call are fits to weak or partial responses and may not hold up. A structure can be active in one record and inactive in another. Calls of active or inactive are those of the source. Unless noted, calls follow the shape of the dose curve; as a rule, active = well fitted curve in the direction sought with a large enough effect in the repeat runs; inconclusive = weak or mixed curves; inactive = no such curve, though single readings can be large; an effect the other way counts as inactive or inconclusive.
Columns and labels:
[1] = qHTS assay to identify small molecule antagonists of the androgen receptor (AR) signaling pathway using the MDA cell line in the presence of 0.5 nM R1881 - cell viability counter screen (AID 1259242); also: nearly all actives have a fitted effect of over 45% in size
How it was run: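 MDA-kb2 cells (MMTV-luciferase, AR/GR responsive) were treated with compounds plus 0.5 nM R1881 (final) for 16 hr at 37C, 0% CO2. Viability was then read in the same wells as live-cell protease fluorescence (CellTiter-Fluor, 30 min).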

[2] = qHTS assay to identify small molecule HDAC inhibitors (AID 1259364); also: nearly all actives have a fitted effect of over 45% in size; as to activity change, negative = inhibition: top concentration of the series differs between compounds; % is scaled to controls: 0 for no effect and ±100 for the full control effect
How it was run: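 Wild-type HCT-116 cells, plated overnight at 37 C, exposed to compounds 2 hr at 37 C; luminogenic HDAC-Glo substrate then added 30 min at room temperature. Luminescence reports relative endogenous class I/II HDAC activity.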

[3] = qHTS assay to identify small molecule antagonists of the sonic hedgehog signaling (Shh) pathway (AID 1259369; calls by dose curve; also: nearly all actives have a fitted effect of over 45% in size)
How it was run: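 NIH/3T3-derived Gli1-Luc reporter cells plated 4 h, dosed with compound, then stimulated with conditioned medium for 24 h at 37 C. Firefly luciferase luminescence read after 30 min with detection reagent at room temperature.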

[4] = molecular target: Estrogen receptor beta (Homo sapiens) (UniProt Q92731); assay: qHTS assay to identify small molecule agonists of the estrogen receptor beta (ER-beta) signaling pathway (AID 1259377; active = well fitted activation curve with a large enough effect in the signal ratio in the repeat runs, not every such curve was filed as active; inconclusive = weak or mixed curves, or effect the other way; the % refers to the signal ratio; as to activation: % is scaled to controls: 0 for no effect and ±100 for the full control effect); details: ER-beta-UAS-bla HEK293T, beta-lactamase FRET ratio, 16 h; activation: at 92.4 µM (top of the series) unless noted
How it was run: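 Beta-lactamase reporter readout: fluorescence of LiveBLAzer B/G FRET substrate after 2 h at room temperature, following 16 h compound treatment of ER-beta-UAS-bla HEK293T cells at 37C in 2% charcoal-stripped FBS medium.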

[5] = molecular target: Estrogen receptor beta (Homo sapiens) (UniProt Q92731); assay: qHTS assay to identify small molecule antagonists of the estrogen receptor beta (ER-beta) signaling pathway (AID 1259378; active = well fitted inhibition curve with a large enough effect in the signal ratio in the repeat runs, not every such curve was filed as active; inconclusive = weak or mixed curves, or effect the other way; inactive = no such curve, though single readings can be large or run the other way; the % refers to the signal ratio; as to activity, negative = inhibition: % is scaled to controls: 0 for no effect and ±100 for the full control effect); details: ER-beta-UAS-bla HEK293T, beta-lactamase FRET ratio, 16 h
How it was run: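 ER-beta-UAS-bla HEK293T cells in 2% charcoal-stripped FBS medium treated with compound plus 1nM final 17-beta-estradiol for 16 hr at 37C. Beta-lactamase reporter read by FRET substrate fluorescence after 2 hours at room temperature.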

[6] = molecular target: Thyrotropin receptor (Homo sapiens) (UniProt P16473); assay: qHTS assay to identify small molecule antagonists of the thyroid stimulating hormone receptor (TSHR) signaling pathway (AID 1259385; calls by dose curve; also: nearly all actives have a fitted effect of over 20% in size); details: TSHR-HEK293 cAMP HTRF, TSH-stimulated antagonist mode; activity change, negative = inhibition: at 92.4 µM (top of the series) unless noted
How it was run: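 TSHR-HEK293 cells (800/well) plated 18 h, then compounds with Ro20-1724 and TSH at 1.5 ng/mL final, 30 min at room temperature. cAMP quantified by HTRF (cAMP-d2/anti-cAMP-cryptate, 1 h); 15 concentrations in triplicate.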

[7] = qHTS assay to identify small molecule phospholipidosis (PLD) inducers (AID 1259344; active = well fitted curve in the direction sought with a large enough effect; inconclusive = small, poorly fitted or top-dose-only effect, or another doubt; inactive = no such curve, though single readings can be large; an effect the other way counts as inactive or inconclusive)
How it was run: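 HepG2 cells, 900/well, treated with compound plus LipidTOX Red for 24 h at 37 C; amiodarone positive and DMSO negative controls. Fixed with paraformaldehyde/Hoechst, then high-content imaging scored LipidTOX pit count and integrated intensity per well and per cell.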

[8] = qHTS assay to identify small molecule agonists of the sonic hedgehog signaling (Shh) pathway - cell viability counter screen (AID 1259366); also: nearly all actives have a fitted effect of over 50% in size
How it was run: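 CellTiter-Fluor fluorescence read-out, 1 hr at 37C, added after 23hr compound exposure. Cells: 3T3 Gli1-Luc, an NIH/3T3 clone with stably integrated Gli1-Luc reporter, plated 4hr before compound.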

[9] = qHTS assay to identify small molecule agonists of the androgen receptor (AR) signaling pathway in the presence of an antagonist - cell viability counter screen (AID 1259379); also: nearly all actives have a fitted effect of over 25% in size
How it was run: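 MDA-kb2 cells (MMTV-luciferase, AR/GR), 3,000/well, 5 h attachment, then 3.0 µM nilutamide (final) and compounds at 15 concentrations. Viability by CellTiter-Fluor fluorescence after 16 h at 37 °C, 0% CO2, in the reporter wells.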

[10] = qHTS assay to identify small molecule agonists of the estrogen receptor beta (ER-beta) signaling pathway - cell viability counter screen (AID 1259380); also: nearly all actives have a fitted effect of over 30% in size
How it was run: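 ER-beta-UAS-bla HEK293T cells in medium with 2% charcoal-stripped FBS, pre-incubated 6 hr, then treated 16 hr at 37C. Cytotoxicity read in the same wells by CellTiter-Glo luminescence after 30 min at room temperature.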

[11] = qHTS assay to identify small molecule antagonists of the estrogen receptor beta (ER-beta) signaling pathway - cell viability counter screen (AID 1259382); also: nearly all actives have a fitted effect of over 55% in size
How it was run: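 ER-beta-UAS-bla HEK293T cells in 2% charcoal-stripped FBS medium, treated with compound plus 1 nM 17-beta-estradiol for 16 h at 37C. Viability read by CellTiter-Glo luminescence after 30 min at room temperature in the same wells.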

[12] = qHTS assay to identify small molecule HDAC inhibitors - cell viability counter screen (AID 1259365); also: nearly all actives have a fitted effect of over 50% in size
How it was run: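 HCT-116 (wild type), 1,500 cells/well, overnight 37C/5% CO2; compound in DMSO 2hr; CellTiter-Glo 30min RT; luminescence read.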

[13] = qHTS assay to identify small molecule antagonists of the sonic hedgehog signaling (Shh) pathway - cell viability counter screen (AID 1259367); also: nearly all actives have a fitted effect of over 55% in size
How it was run: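 NIH/3T3-derived Gli1-Luc reporter cells, 2,000/well, plated 4 hr before compound addition, then stimulated with conditioned medium for 24 hr at 37C. Viability measured in the same wells by CellTiter-Fluor fluorescence, reagent added at 23 hr for 1 hr.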

[14] = qHTS assay to identify small molecule agonists of the estrogen receptor alpha (ER-alpha) signaling pathway in the presence of an antagonist - cell viability counter screen (AID 1259386);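 also: cells exposed to compounds for 22 h at 37 °C before the viability read; nearly all actives have a fitted effect of over 30% in size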
How it was run: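 Cell viability in VM7Luc4E2 cells (endogenous full-length ER-alpha) measured by CellTiter-Fluor fluorescence in the same wells as the luciferase screen. Cells pre-cultured 5 days in charcoal-stripped serum, then treated 22 h with compounds at 15 concentrations plus 10.0nM ICI-182,780.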

[15] = molecular target: Estrogen receptor (Homo sapiens) (UniProt P03372); assay: qHTS assay to identify small molecule antagonists of the estrogen receptor alpha (ER-alpha) signaling pathway using the BG1 cell line in the presence of 0.1 nM 17-beta-estradiol (AID 1259244); also: nearly all actives have a fitted effect of over 50% in size
How it was run: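 VM7Luc4E2 cells (endogenous full-length ER-alpha, 4×ERE-luciferase), kept 5 days in phenol red-free, charcoal-stripped FBS medium; 4,000 cells/well. Compounds added with 0.1 nM (final) 17beta-estradiol, 22 hr at 37C; luminescence read with ONE-Glo after 30 min.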

[16] = qHTS assay to identify small molecule agonists or antagonists of the thyroid stimulating hormone receptor (TSHR) signaling pathway - wild type cell line counter screen (AID 1259384; calls by dose curve); details: HEK293 wild type, cAMP HTRF counter-screen; cAMP activity change: at 92.4 µM (top of the series), stronger effect = higher value unless noted
How it was run: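 Wild-type Hek293 cells, 800/well, 18 h at 37C, then compound with Ro20-1724 for 30 min RT. cAMP by HTRF (cAMP-d2/anti-cAMP cryptate), 1 h RT, fluorescence read. 15 concentrations, triplicates.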

[17] = activity, negative = inhibition: at 92.4 µM (top of the series) unless noted
Potency is read from the fitted curve at half-maximal effect; tags tell the direction and shape of the fitted curve or compound fluorescence and quenching.

Chain of UniProt Q92731 (Q92731 whole entry, looked up): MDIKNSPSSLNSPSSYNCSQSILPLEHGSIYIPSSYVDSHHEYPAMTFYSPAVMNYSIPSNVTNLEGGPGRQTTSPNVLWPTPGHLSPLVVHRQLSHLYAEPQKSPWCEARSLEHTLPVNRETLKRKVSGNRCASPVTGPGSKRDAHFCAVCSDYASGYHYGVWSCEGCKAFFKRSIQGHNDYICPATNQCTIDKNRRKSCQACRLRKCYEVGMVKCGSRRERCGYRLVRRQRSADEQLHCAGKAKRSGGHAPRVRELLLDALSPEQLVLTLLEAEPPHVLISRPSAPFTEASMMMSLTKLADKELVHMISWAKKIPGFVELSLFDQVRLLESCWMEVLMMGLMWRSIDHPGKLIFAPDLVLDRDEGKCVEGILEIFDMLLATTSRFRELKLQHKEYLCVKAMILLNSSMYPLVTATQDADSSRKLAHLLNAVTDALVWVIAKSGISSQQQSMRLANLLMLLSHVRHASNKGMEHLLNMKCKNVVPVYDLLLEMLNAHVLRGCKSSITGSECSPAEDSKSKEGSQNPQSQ
Chain of UniProt P16473 (P16473 whole entry, looked up): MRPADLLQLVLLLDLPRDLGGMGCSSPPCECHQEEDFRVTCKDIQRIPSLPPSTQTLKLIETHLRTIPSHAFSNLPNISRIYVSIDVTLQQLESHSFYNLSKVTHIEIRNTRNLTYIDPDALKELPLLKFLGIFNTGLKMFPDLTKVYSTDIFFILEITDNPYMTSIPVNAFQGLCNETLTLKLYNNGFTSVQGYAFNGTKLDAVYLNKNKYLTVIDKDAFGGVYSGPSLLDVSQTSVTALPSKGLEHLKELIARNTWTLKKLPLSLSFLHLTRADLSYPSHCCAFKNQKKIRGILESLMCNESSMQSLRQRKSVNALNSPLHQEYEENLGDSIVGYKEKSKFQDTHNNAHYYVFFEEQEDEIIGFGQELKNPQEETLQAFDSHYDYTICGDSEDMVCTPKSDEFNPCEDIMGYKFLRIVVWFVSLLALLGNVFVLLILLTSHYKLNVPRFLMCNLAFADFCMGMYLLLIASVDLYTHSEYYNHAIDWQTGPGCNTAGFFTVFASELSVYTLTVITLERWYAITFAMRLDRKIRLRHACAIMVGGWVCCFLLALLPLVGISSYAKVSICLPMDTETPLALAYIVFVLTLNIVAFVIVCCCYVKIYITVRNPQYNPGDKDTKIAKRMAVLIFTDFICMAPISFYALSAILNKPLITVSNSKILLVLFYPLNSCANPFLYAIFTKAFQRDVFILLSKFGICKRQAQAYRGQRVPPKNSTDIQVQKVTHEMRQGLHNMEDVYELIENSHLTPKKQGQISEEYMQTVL
Chain of UniProt P03372 (P03372 whole entry, looked up): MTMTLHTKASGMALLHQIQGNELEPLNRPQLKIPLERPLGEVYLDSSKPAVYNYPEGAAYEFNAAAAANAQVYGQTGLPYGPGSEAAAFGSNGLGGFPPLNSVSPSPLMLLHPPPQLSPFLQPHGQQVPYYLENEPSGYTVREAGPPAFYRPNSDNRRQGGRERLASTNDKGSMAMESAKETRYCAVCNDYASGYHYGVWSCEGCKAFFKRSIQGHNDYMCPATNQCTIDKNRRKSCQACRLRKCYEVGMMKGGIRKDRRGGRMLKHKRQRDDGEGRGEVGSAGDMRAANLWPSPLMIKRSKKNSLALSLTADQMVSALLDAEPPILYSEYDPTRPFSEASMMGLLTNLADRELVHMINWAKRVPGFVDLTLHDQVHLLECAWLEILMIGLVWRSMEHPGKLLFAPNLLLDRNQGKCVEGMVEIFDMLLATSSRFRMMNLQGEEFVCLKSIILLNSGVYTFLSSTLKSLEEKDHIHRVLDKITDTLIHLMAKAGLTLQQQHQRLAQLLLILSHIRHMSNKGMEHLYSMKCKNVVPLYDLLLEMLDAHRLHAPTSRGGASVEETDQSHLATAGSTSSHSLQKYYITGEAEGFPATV

Which Potency [1] does the source give for CCC(C)(C)c1cc(O)c(C(C)(C)CC)cc1O here?
Its Potency is inconclusive: 68.6 µM [cytotoxic, single point].

What about the Potency [2] of the same compound?
Its Potency is “inactive”.

What about the Potency [3] of the same compound?
The Potency was active: 6.86 µM.

What about the Potency [4] of the same compound?
Its Potency is “inactive”.

And the Potency [5, 17]?
The Potency was active: 48.6 µM.

And the Potency [6]?
Its Potency is inconclusive: 68.6 µM.

Which Potency [1] does the source give for Cc1c(C)n(Cc2ccccc2)c2ccc(C(=O)OCCN(C)C)cc12 here?
Its Potency is inconclusive: 33.5 µM [cytotoxic, single point].

And the Potency [7]?
The Potency was inconclusive: 20 µM [activator, single point].

And the Potency [2]?
The Potency was inconclusive: 33.5 µM [inhibitor, partial curve, poor fit].

What about the Potency [8] of the same compound?
The Potency was inconclusive: 33.5 µM [cytotoxic, single point].

What about the Potency [5, 17] of the same compound?
The Potency was active: 23.7 µM.

What about the Potency [9] of the same compound?
The Potency was inconclusive: 29.8 µM [cytotoxic, partial curve].

And the Potency [10]?
The Potency was inconclusive: 33.5 µM [cytotoxic].

And the Potency [11]?
The Potency was inconclusive: 29.8 µM [cytotoxic].

With Cc1ccc(S(=O)(=O)Oc2ccc(N=Nc3ccc(-c4ccc(N=Nc5c(O)ccc6cc(S(=O)(=O)O)cc(S(=O)(=O)O)c56)c(C)c4)cc3C)cc2)cc1 as the compound, how does the Potency [1] read?
The Potency was active: 27.4 µM and active: 17.8 µM.

And the Potency [2]?
Its Potency is “inactive”.

What about the Potency [12] of the same compound?
Its Potency is inconclusive: 30.8 µM [cytotoxic, partial curve] and inconclusive: 25.1 µM [cytotoxic, partial curve, poor fit].

What about the activity, negative = inhibition [5, 17] of the same compound?
Its activity, negative = inhibition is inconclusive: -26.4% [at 42.5 µM].

What about the activity, negative = inhibition ([5]; at 92.4 µM (top of the series)) of the same compound?
Its activity, negative = inhibition is inactive: -17.4%.

What does the source list for CN(C)CCC=C1c2ccccc2CCc2ccccc21?
Potency [1]: inconclusive: 68.6 µM [cytotoxic, single point]; Potency [7]: active: 7.08 µM; Potency [8]: inconclusive: 27.3 µM [cytotoxic, full curve]; Potency [13]: inconclusive: 27.3 µM [cytotoxic, partial curve]; Potency [3]: active: 2.73 µM and active: 9.69 µM and active: 7.5 µM; Potency [4]: inconclusive: 68.6 µM [rising, single point]; Potency [5, 17]: active: 68.6 µM and inconclusive: 19.3 µM [full curve] and inconclusive: 29.8 µM; Potency [9]: inconclusive: 68.6 µM [cytotoxic, single point] and inconclusive: 61.1 µM [cytotoxic, partial curve]; Potency [10]: inconclusive: 27.3 µM [cytotoxic, partial curve, poor fit]; Potency [6]: active: 68.6 µM and inconclusive: 68.6 µM and active: 26.6 µM; Potency [14]: inconclusive: 68.6 µM [cytotoxic]

With CS(=O)(=O)CCNCc1ccc(-c2ccc3ncnc(Nc4ccc(OCc5cccc(F)c5)c(Cl)c4)c3c2)o1 as the compound, how does the Potency [1] read?
Its Potency is inconclusive: 13.3 µM [cytotoxic, partial curve].

What about the Potency [15] of the same compound?
Its Potency is active: 29.8 µM.

And the Potency [3]?
The Potency was inconclusive: 5.31 µM [inhibitor, full curve].

And the Potency [4]?
The Potency was inconclusive: 16.8 µM [rising, full curve].

And the Potency [5, 17]?
The Potency was inconclusive: 7.5 µM.

And the Potency [11]?
The Potency was active: 13.3 µM.

What does the source list for O=C1c2c(O)ccc([N+](=O)[O-])c2C(=O)c2c([N+](=O)[O-])ccc(O)c21?
Potency [1]: active: 27.1 µM; Potency [2]: inconclusive: 10.8 µM [inhibitor]; Potency [12]: active: 21.5 µM; Potency [13]: active: 10.8 µM; Potency [3]: active: 1.52 µM; Potency [5, 17]: inconclusive: 8.56 µM [rising, full curve]; Potency [9]: active: 27.1 µM; Potency [16]: inconclusive: 54 µM [falling, partial curve, poor fit]

What does the source list for CCN(CC)CCOc1ccc(/C(=C(\Cl)c2ccccc2)c2ccccc2)cc1?
Potency [1]: inconclusive: 55.6 µM [cytotoxic, single point] and inconclusive: 29.8 µM [cytotoxic, single point]; Potency [7]: inconclusive: 5.01 µM [activator, single point]; Potency [8]: inconclusive: 44.2 µM [cytotoxic] and inconclusive: 33.5 µM [cytotoxic, single point]; Potency [13]: inconclusive: 55.6 µM [cytotoxic, single point]; Potency [3]: inconclusive: 1.06 µM [inhibitor, full curve, poor fit]; Potency [5, 17]: active: 0.266 µM; Potency [10]: active: 49.6 µM and active: 29.8 µM; Potency [11]: active: 44.2 µM and active: 29.8 µM

— PubChem BioAssay (Tox21)
